Enrichment ratio data for 153 variants are collected here from a collection of fitness landscapes (doi:10.1126/science.1257360).

The chains are these.
B1: PhoQ; a variant is named by its letters at X, in order, P23837 (parent)
chain: MKKLLRLFFPLSLRVRFLLATAAVVLVLSLAYGMVALIGYSVSFDKTTFRLLRGESNLFYTLAKWENNKLHVELPENIDKQSPTMTLIYDENGQLLWAQRDVPWLMKMIQPDWLKSNGFHEIEADVNDTSLLLSGDHSIQQQLQEVREDDDDAEMTHSVAVNVYPATSRMPKLTIVVVDTIPVELKSSYMVWSWFIYVLSANLLLVIPLLWVAAWWSLRPIEALAKEVRELEEHNRELLNPATTRELTSLVRNLNRLLKSERERYDKYRTTLTDLTHSLKTPLXXLQXXLRSLRSEKMSVSDAEPVMLEQISRISQQIGYYLHRASMRGGTLLSRELHPVAPLLDNLTSALNKVYQRKGVNISLDISPEISFVGEQNDFVEVMGNVLDNACKYCLEFVEISARQTDEHLYIVVEDDGPGIPLSKREVIFDRGQRVDTLRPGQGVGLAVAREITEQYEGKIVAGESMLGGARMEVIFGRQHSAPKDE

Some of the results follow.

The assay covers variants of B1. The assay is described as follows: enrichment ratio after two sorts for PhoP signalling (ratio (wild type AVST 3.29)); higher = more functional. The note with it: with PhoP (E. coli).
As to WSGR, the enrichment ratio is not above 0.25.

HIHL: the enrichment ratio is not above 0.25.

For WILI, the enrichment ratio is not above 0.25.

Consider QTDV, for which the enrichment ratio is 7.98.

As to INYN, the enrichment ratio is not above 0.25.

LPHN: the enrichment ratio is not above 0.25.

For the variant ANKR, the enrichment ratio was not above 0.25.

Take YDWK: the enrichment ratio is not above 0.25.

LNLS: the enrichment ratio is not above 0.25.

As for AFTQ, the enrichment ratio was not above 0.25.

Consider QMLS, for which the enrichment ratio is not above 0.25.

With GNQF, the enrichment ratio was not above 0.25.

Turning to NIKC, the enrichment ratio was not above 0.25.

Take DATM: the enrichment ratio is not above 0.25.

Regarding DICG, the enrichment ratio was not above 0.25.

Consider APML, for which the enrichment ratio was not above 0.25.

In the case of QRVI, the enrichment ratio is not above 0.25.

TVHG: the enrichment ratio came out at 0.311.

Turning to MEHP, the enrichment ratio is not above 0.25.

As to VYGP, the enrichment ratio was not above 0.25.

Regarding EFQK, the enrichment ratio was not above 0.25.

PVEI: the enrichment ratio was not above 0.25.

Turning to LLVG, the enrichment ratio was not above 0.25.

With LNKR, the enrichment ratio was not above 0.25.

Take FNTQ: the enrichment ratio is not above 0.25.

Turning to FYCW, the enrichment ratio is not above 0.25.

As for LKPQ, the enrichment ratio is not above 0.25.

As for WFSR, the enrichment ratio was not above 0.25.

Regarding IQGL, the enrichment ratio is not above 0.25.

For VCHS, the enrichment ratio is not above 0.25.

As to PEQY, the enrichment ratio was not above 0.25.

QENE: the enrichment ratio is not above 0.25.

Consider EGDI, for which the enrichment ratio is not above 0.25.

RQML: the enrichment ratio was not above 0.25.

For VYQA, the enrichment ratio was not above 0.25.

As for PGWK, the enrichment ratio was not above 0.25.

On to RGPW, for which the enrichment ratio was not above 0.25.

As to RKGY, the enrichment ratio is not above 0.25.

Take LNMY: the enrichment ratio is not above 0.25.

Consider NNCT, for which the enrichment ratio is not above 0.25.

Turning to KFGC, the enrichment ratio is not above 0.25.

Turning to AFRQ, the enrichment ratio was not above 0.25.

As for FSTT, the enrichment ratio is not above 0.25.

In the case of ASLA, the enrichment ratio came to 14.6.

Turning to QWLY, the enrichment ratio is not above 0.25.

Turning to RDMY, the enrichment ratio was not above 0.25.

In the case of WAVR, the enrichment ratio was not above 0.25.

With SLMI, the enrichment ratio is 10.3.

For RNEL, the enrichment ratio was not above 0.25.

With TKAY, the enrichment ratio is 8.06.

Regarding IMFH, the enrichment ratio was not above 0.25.

Take FMNL: the enrichment ratio is not above 0.25.

As for IRMK, the enrichment ratio was not above 0.25.

For the variant CSFS, the enrichment ratio is not above 0.25.

With DQHI, the enrichment ratio was not above 0.25.

Take WMCH: the enrichment ratio was not above 0.25.

As for LKNY, the enrichment ratio was not above 0.25.

Regarding NIRT, the enrichment ratio was not above 0.25.

On to EVCC, for which the enrichment ratio is not above 0.25.

In the case of MMCE, the enrichment ratio was not above 0.25.

In the case of LWHI, the enrichment ratio is not above 0.25.

Consider KEYR, for which the enrichment ratio was not above 0.25.

With MFNM, the enrichment ratio is not above 0.25.

For the variant QYQL, the enrichment ratio was not above 0.25.

For the variant DKTD, the enrichment ratio was not above 0.25.

Regarding YMCH, the enrichment ratio is 0.253.

Take RVIR: the enrichment ratio is not above 0.25.

On to LDPC, for which the enrichment ratio is not above 0.25.

Take NGFI: the enrichment ratio is not above 0.25.

For TQKN, the enrichment ratio was not above 0.25.

HPDT: the enrichment ratio is not above 0.25.

Turning to RIWN, the enrichment ratio is not above 0.25.

As to KKRR, the enrichment ratio is not above 0.25.

THPW: the enrichment ratio is not above 0.25.

With IRHP, the enrichment ratio was not above 0.25.

For HTIP, the enrichment ratio is not above 0.25.

GCGW: the enrichment ratio was not above 0.25.

On to RKLD, for which the enrichment ratio was not above 0.25.

With PDEM, the enrichment ratio is not above 0.25.

FHTT: the enrichment ratio is not above 0.25.

Consider HFRL, for which the enrichment ratio was not above 0.25.

As for YFAV, the enrichment ratio is not above 0.25.

Turning to PKDL, the enrichment ratio is not above 0.25.

As for HKNT, the enrichment ratio was not above 0.25.

Regarding TVEP, the enrichment ratio was not above 0.25.

Regarding FALV, the enrichment ratio is 7.53.

As to PVDL, the enrichment ratio was not above 0.25.

For the variant LPLN, the enrichment ratio was not above 0.25.

Regarding GMHQ, the enrichment ratio is not above 0.25.

In the case of YLYF, the enrichment ratio was not above 0.25.

On to KARN, for which the enrichment ratio is not above 0.25.

IHTP: the enrichment ratio was not above 0.25.

With FEEP, the enrichment ratio was not above 0.25.

With NTRC, the enrichment ratio was determined as 2.86.

Consider DGML, for which the enrichment ratio is not above 0.25.

In the case of VLYG, the enrichment ratio is not above 0.25.

For SHLS, the enrichment ratio worked out at 0.38.

YQSG: the enrichment ratio was not above 0.25.

For the variant KVNV, the enrichment ratio is not above 0.25.

For the variant EVNF, the enrichment ratio was not above 0.25.

With PWKS, the enrichment ratio is not above 0.25.

Regarding QEFL, the enrichment ratio is 2.95.

Turning to EYKK, the enrichment ratio was not above 0.25.

As to PWRS, the enrichment ratio is not above 0.25.

In the case of YPNP, the enrichment ratio is not above 0.25.

With GDFE, the enrichment ratio was not above 0.25.

Regarding LLPF, the enrichment ratio is not above 0.25.

In the case of MNIP, the enrichment ratio was not above 0.25.

KRWF: the enrichment ratio was not above 0.25.

Regarding MCMW, the enrichment ratio is not above 0.25.

Take YKFL: the enrichment ratio is not above 0.25.

In the case of HHRT, the enrichment ratio is not above 0.25.

As to TNFI, the enrichment ratio was not above 0.25.

As to HSSK, the enrichment ratio is not above 0.25.

In the case of IGNI, the enrichment ratio is not above 0.25.

Take KMVS: the enrichment ratio is not above 0.25.

Take NWRI: the enrichment ratio was not above 0.25.

As to EIET, the enrichment ratio is not above 0.25.

Turning to MTMF, the enrichment ratio stood at 8.2.

As to TLYK, the enrichment ratio is not above 0.25.

For the variant TIIP, the enrichment ratio is not above 0.25.

With VEWQ, the enrichment ratio is not above 0.25.

With SAWR, the enrichment ratio is not above 0.25.

On to MQSW, for which the enrichment ratio is not above 0.25.

Turning to THSH, the enrichment ratio was determined as 12.3.

For SPCD, the enrichment ratio was not above 0.25.

Take MEEA: the enrichment ratio is not above 0.25.

On to AAFY, for which the enrichment ratio is not above 0.25.

Regarding HWMY, the enrichment ratio is not above 0.25.

Take KYEF: the enrichment ratio is not above 0.25.

Turning to LIRH, the enrichment ratio is not above 0.25.

In the case of GWAD, the enrichment ratio is not above 0.25.

Consider SRNV, for which the enrichment ratio is not above 0.25.

In the case of ISCF, the enrichment ratio was not above 0.25.

With VDYK, the enrichment ratio is not above 0.25.

With AGYH, the enrichment ratio was determined as 0.299.

In the case of MADY, the enrichment ratio was not above 0.25.

With DEFF, the enrichment ratio is not above 0.25.

For YCIP, the enrichment ratio is not above 0.25.

For RGFN, the enrichment ratio is not above 0.25.

Regarding PKMI, the enrichment ratio was not above 0.25.

For the variant AWFA, the enrichment ratio is not above 0.25.

Turning to MIYC, the enrichment ratio is not above 0.25.

Regarding SCMS, the enrichment ratio was found to be 6.76.

With VVNM, the enrichment ratio is not above 0.25.

For the variant HPFY, the enrichment ratio is not above 0.25.

Regarding PRAT, the enrichment ratio is not above 0.25.

On to WICH, for which the enrichment ratio was not above 0.25.

As to ICGM, the enrichment ratio is not above 0.25.

For the variant MGYS, the enrichment ratio amounted to 12.2.

Consider IFVK, for which the enrichment ratio is not above 0.25.

For AHMG, the enrichment ratio is not above 0.25.

For the variant ILDP, the enrichment ratio is not above 0.25.
